The structures appear in SMILES notation. The campaign covered roughly 340,000 compounds. About 6,900 (2%) were called active. Cut-off read from the data, not from the text of the source: active = inhibition above about 30%; inactive = below that, where a call was filed. This is a selection; strong and weak results do not stand in their true shares. The source gives no active or inactive call for entries shown without one.

Broadly, the inhibition is the drop in the measured response relative to a control, in per cent.

This assay has as its target D(2) dopamine receptor (Homo sapiens) (UniProt P14416). Description: HTS Assay for Allosteric Antagonists of the Human D2 Dopamine Receptor: Primary Screen for Antagonists. Note: 0% is about no effect. The conditions noted are these: HEK293 TREx D2 cells, calcium flux, dopamine EC80; at 10 µM; stronger effect = higher value. The essentials: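 Tetracycline-induced HEK293 TREx cells expressing D2 receptor forced-coupled to calcium signalling, loaded with no-wash calcium dye. Compounds added and calcium flux read 180 s, then dopamine added at EC80 and read a further 180 s.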
UniProt P14416, sequence (P14416 whole entry, looked up): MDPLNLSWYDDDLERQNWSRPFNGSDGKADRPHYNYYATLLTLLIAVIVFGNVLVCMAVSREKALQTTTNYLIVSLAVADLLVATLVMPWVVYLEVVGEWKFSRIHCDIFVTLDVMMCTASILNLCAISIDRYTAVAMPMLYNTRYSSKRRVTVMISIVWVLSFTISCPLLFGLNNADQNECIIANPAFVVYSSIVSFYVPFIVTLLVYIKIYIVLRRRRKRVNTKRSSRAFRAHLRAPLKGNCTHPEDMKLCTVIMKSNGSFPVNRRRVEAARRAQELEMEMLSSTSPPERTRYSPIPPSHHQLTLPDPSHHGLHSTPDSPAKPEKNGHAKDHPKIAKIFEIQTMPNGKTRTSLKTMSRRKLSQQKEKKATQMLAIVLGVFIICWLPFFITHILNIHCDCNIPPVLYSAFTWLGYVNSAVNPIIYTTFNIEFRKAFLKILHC
Consider `CCOC(=O)N1CCC(NCCNC(=O)c2cccc(F)c2)CC1`, for which the inhibition is active: 60.3%.

In the case of `CCc1ccc(-n2nc(CO)c(C(=O)NCCCCc3ccccc3)n2)cc1`, the inhibition is -12%.

Turning to `O=C(NCc1ccc(Cl)cc1)c1cc(-c2ccc(F)cc2)on1`, the inhibition is -16.9%.

With `O=C(COc1ccc(Br)cc1)Nc1cccc2cccnc12`, the inhibition was -4.89%.

As to `COC(=O)CN1C(=O)C(C)(C)c2cc(S(=O)(=O)Nc3ccc(C(C)C)cc3)ccc21`, the inhibition stood at 3.57%.

For `Cc1ccc(C)c(CN2C(=O)C(O)(c3c[nH]c4ccccc34)c3ccccc32)c1` (configuration not stated), the inhibition was 13.2%.

As for `CC(NC(=O)c1cc2ccccn2n1)c1ccccc1` (configuration not stated), the inhibition was 2.58%.

For `CCc1cccc(NC(=O)c2coc(=O)c3ccccc23)c1`, the inhibition worked out at 7.45%.

`COC(=O)c1ccc(Cl)cc1NC(=O)N1CCC(CN2CCC(C)CC2)CC1`: the inhibition was 5.6%.

For `CC(CCc1ccccc1)NCC(O)c1ccc(O)c(C(N)=O)c1` (configuration not stated), the inhibition is active: 67.2%.

As to `COc1cccc(NC(=O)c2oc3ccccc3c2NC(=O)Cc2cccc(C)c2)c1`, the inhibition was -1.07%.

On to `COc1ccc(OCC(=O)N2CCN(C(=O)c3ccc(OC)cc3)CC2)cc1`, for which the inhibition stood at 9.12%.

Regarding `COc1ccc(CCNC(=O)CCCn2c(=O)c3cccn3c3ccc(F)cc32)cc1OC`, the inhibition was -6.62%.

As for `CCOc1ccc(Nc2nc(Nc3ccc(OCC)cc3)nc(N3CCOCC3)n2)cc1`, the inhibition turned out to be 7.56%.

For the compound `COc1ccc(NC(=O)CC2C(=O)N(c3ccc(C)cc3)C(=O)N2C2CCCC2)cc1` (configuration not stated), the inhibition is -3.04%.

Turning to `Cc1ccc(Cl)c(OCCCN(C)Cc2ccccc2)c1`, the inhibition was active: 63.5%.

Regarding `COc1cc(N)c(Cl)cc1C(=O)OCC(=O)N1CCCC1`, the inhibition was active: 31.6%.

As for `CCOc1ccc(C(=O)c2cn(CC(=O)Nc3ccc(C)c(C)c3)c3ccc(OCC)cc3c2=O)cc1`, the inhibition was 10.6%.

Take `COc1cc(O)c(C(CC(=O)N2CCCC(C)C2)c2ccc(N(C)C)cc2)c(OC)c1` (configuration not stated): the inhibition is active: 31.3%.

On to `COc1ccc(N2CC(NC(=O)c3ccc(S(=O)(=O)N4CCOCC4)cc3)CC2=O)cc1` (configuration not stated), for which the inhibition was 5.82%.

Take `COc1cc2c(cc1OC)C(COc1ccc(C(C)C)cc1)N(C(=O)COc1ccccc1)CC2` (configuration not stated): the inhibition is -3.71%.

As to `COc1ccccc1NC(=O)C1CCN(c2ncnc3c2nc2n3CCCCC2)CC1`, the inhibition worked out at 0.733%.

As for `CCS(=O)(=O)c1nc(S(=O)(=O)c2ccc(C)cc2)c(NCc2ccccc2Cl)s1`, the inhibition is 0.318%.

For `CCOC(=O)CSc1ncnc2c1c(-c1ccccc1)cn2-c1ccc(OC)cc1`, the inhibition is -5.18%.

Regarding `CCOC(=O)Cn1cnc2c(cnn2-c2ccc(C)c(C)c2)c1=O`, the inhibition is -3.97%.

With `Cc1ccccc1C(=O)NCc1ccc2c(c1)CCN2C(=O)c1ccc(F)cc1`, the inhibition is 9.79%.

As for `CC1CCC(NC(=O)CCc2cn(Cc3ccc(F)cc3)c3ccccc23)CC1` (configuration not stated), the inhibition was -9.95%.

For `Cc1nn2c(=O)cc(COC(=O)COc3ccccc3C)nc2s1`, the inhibition was found to be 13.5%.

Turning to `O=C(O)C1=CC(c2ccc(Br)cc2)n2ncnc2N1` (configuration not stated), the inhibition is 8.34%.

Regarding `CCOc1ccc(CCNC(=O)c2sc3nc4n(c(=O)c3c2C)CCCC4)cc1`, the inhibition was -1.88%.

Regarding `O=C(O)Cn1nc(N2CCN(c3ccccc3)CC2)ccc1=O`, the inhibition amounted to 18%.

Take `COc1ccccc1C1CCN(Cc2ccccc2Cl)CC1`: the inhibition was active: 91.9%.

Consider `Cc1sc2c(c1C)c(=O)n(Cc1ccccc1)c(=O)n2CC(=O)Nc1cccc(Cl)c1`, for which the inhibition amounted to 1.68%.

As for `Cc1cc(C)c(OCC(O)CN2CCN(c3ccccn3)CC2)c(C)c1` (configuration not stated), the inhibition is active: 78.1%.

Turning to `CCc1ccc(S(=O)(=O)c2cnc(SCC(=O)Nc3ccc(OC)cc3OC)[nH]c2=O)cc1`, the inhibition came out at 6.98%.

For `Cc1ccc(N2C(=O)C(CC(=O)Nc3ccccc3)N(CCC3=CCCCC3)C2=O)cc1` (configuration not stated), the inhibition was found to be 6.99%.

Take `Cn1c2ccc(F)cc2c2nnc(SCCN3CCCCC3)nc21`: the inhibition amounted to 18.6%.

Consider `CCOc1ccccc1N(CC)C(=O)c1cc2ccc3cccnc3c2[nH]1`, for which the inhibition came out at 1.46%.

`CCOc1ccccc1NC(=O)CN1C(=O)C(=O)c2ccccc21`: the inhibition is -9.26%.

Take `CC(C)NC(=O)c1sc2ncccc2c1-n1cccc1`: the inhibition came out at 17.7%.

In the case of `CCCc1cc(=O)oc2cc(C)c3c(-c4ccccc4)c(C)oc3c12`, the inhibition was -4.07%.

For the compound `O=C(CCS(=O)(=O)c1nc(-c2cccs2)cc(C(F)(F)F)n1)Nc1cccc(O)c1`, the inhibition stood at 16.3%.

As for `COc1ccccc1CNC(=O)c1cc(-c2ccccc2)n[nH]1`, the inhibition amounted to 7.1%.

`Cc1oc(-c2cccc(Cl)c2)nc1CSCC(=O)O`: the inhibition was -26.5%.

Turning to `CCN(C(=O)c1cc2c(Cl)nc3ccc(C)cc3c2s1)c1cc(OC)ccc1OC`, the inhibition was -6.41%.

As for `CCC(=O)Nc1ccc(C)cc1-c1nc2ccccc2n(Cc2ccccc2)c1=O`, the inhibition worked out at 26.4%.

Turning to `COc1ccccc1C(=O)Nc1c(C(=O)Nc2ccc(C)cc2)oc2ccccc12`, the inhibition stood at 13.7%.

For `COc1ccc(NC(=O)C2CCCN2S(=O)(=O)c2ccc3c(c2)CCCC(=O)N3)cc1Cl` (configuration not stated), the inhibition is 2.84%.

Consider `COc1cc(C2CC(=O)Nc3cc4c(cc32)OCCO4)cc(OC)c1O` (configuration not stated), for which the inhibition is 4.58%.

As for `Cc1oncc1C(=O)Nc1ccc(C(F)(F)F)cc1`, the inhibition was active: 35.6%.

For `CCCCC(=O)Nc1ccc(OCc2cc(=O)n3ccc(C)cc3n2)cc1`, the inhibition amounted to 10.6%.

As for `COc1ccccc1NC(=S)NNC(=O)c1nn(C)c(C)c1Cl`, the inhibition was active: 82.2%.

Turning to `CCCCN(CCCC)c1nc(-c2ccccc2)nc2ccccc12`, the inhibition is -23%.

Regarding `CCOc1ccc(CCNC(=O)c2cnc3c(-c4ccccc4)c(C)nn3c2C)cc1OCC`, the inhibition was -1.15%.

Regarding `Cc1cccc(NC(=O)CN2C(=O)CCc3ccccc32)c1C`, the inhibition is -3.45%.

Regarding `CCc1ccc(CNC(=O)C2CCN(c3nnc(-n4c(C)ccc4C)s3)CC2)cc1`, the inhibition is -8.3%.

In the case of `COc1ccc(N2CCN(c3oc(/C=C/c4cccc(OC)c4)nc3C#N)CC2)cc1`, the inhibition is -1.83%.

Take `CC(C)c1ccc(OCC(=O)Nc2cc(-c3nc4ncccc4o3)ccc2Cl)cc1`: the inhibition was found to be 4.2%.

On to `O=[N+]([O-])c1ccc(C(c2sc3nc(-c4ccco4)nn3c2O)N2CCC3(CC2)OCCO3)cc1` (configuration not stated), for which the inhibition was found to be 1.96%.

On to `O=C(O)c1cccnc1Nc1cccc(C(F)(F)F)c1`, for which the inhibition was active: 55.6%.

In the case of `COc1ccccc1CNC(=O)C(C)n1c(=O)cc(C(F)(F)F)c2c(C)nn(C)c21` (configuration not stated), the inhibition is -7.15%.

Regarding `CCOC(=O)c1[nH]c(C)c(C(=O)NCc2ccc(F)cc2)c1C`, the inhibition came out at 11.4%.

As to `COc1cc(CNCCSc2nnnn2C)ccc1OCc1c(F)cccc1Cl`, the inhibition turned out to be 5.98%.

Take `CCOc1ccccc1Nc1ccc2cc(S(=O)(=O)N3CCCCC3)ccc2n1`: the inhibition amounted to 13.8%.

`CCOC(=O)c1c(C)oc2nc(C)nc(NCCc3ccc(S(N)(=O)=O)cc3)c12`: the inhibition was found to be 13.7%.

Take `O=C(NCCc1ccccc1)c1cnc2sc(N3CCOCC3)nn2c1=O`: the inhibition is -2.59%.

With `CCCSCCCNC(=O)CN1C(=O)COc2ccc(S(=O)(=O)N3CCCCCC3)cc21`, the inhibition was -3.34%.

Regarding `Cc1cc(NC(=O)CN(c2cccc(C)c2C)S(=O)(=O)c2ccccc2)ccc1Br`, the inhibition stood at 16.2%.

Turning to `O=C(Nc1ccc(F)cc1F)C1CCCN1S(=O)(=O)c1cccc2nsnc12` (configuration not stated), the inhibition turned out to be 6.8%.

Regarding `CCOC1(OCC)C(c2ccc(Cl)cc2)C(C#N)(C#N)C1(OCC)OCC` (configuration not stated), the inhibition is active: 38.5%.

For `CCCOc1ccc(CNC(=O)C2CCN(c3nn4c(=O)cc(C)nc4s3)CC2)cc1`, the inhibition was 5.79%.

As for `Cc1cccc(C(=O)Nc2cccc(C(=O)OCc3cc(=O)n4nc(C5CC5)sc4n3)c2)c1`, the inhibition turned out to be 18.5%.

For the compound `N#Cc1ccccc1NC(=O)C(=O)NCC(c1cccnc1)N1CCN(c2ccccc2)CC1` (configuration not stated), the inhibition was -1.72%.

Regarding `CCOc1ccc(C(=O)Nc2ccc3nc(SCC(=O)N4CCOCC4)sc3c2)cc1`, the inhibition was -14.5%.

On to `Cc1ccc(OCC(=O)Nc2ccc(-c3nc4ccc(C)cc4o3)cc2)cc1`, for which the inhibition worked out at 10.5%.

In the case of `CCOc1ccc(-c2nonc2NC(=O)c2oc3cc(Br)ccc3c2C)cc1`, the inhibition stood at 13%.

For the compound `COc1cc2c(c(O)c1OC)C(=O)C(OC)CCC2` (configuration not stated), the inhibition is active: 32%.

As for `Cc1cc(C)nc(N2CCCC(C(=O)Nc3nnc(C(C)(C)C)s3)C2)n1` (configuration not stated), the inhibition is active: 47.9%.

Take `CC(NC(=O)c1cc2sccc2n1Cc1ccc(F)cc1)c1ccccc1` (configuration not stated): the inhibition is -6.5%.

On to `COc1ccc(C(=O)Nc2ccc(-c3cc(C(F)(F)F)nn3-c3ccccc3)cc2)cc1OC`, for which the inhibition is -21.1%.

Regarding `CCc1cccc(C)c1NS(=O)(=O)c1ccc(-n2cccn2)cc1`, the inhibition is -2.07%.

As to `Cc1ccc(CC(=O)NCc2cccnc2)cc1`, the inhibition was active: 67.4%.

Turning to `CC(=O)N1CCCc2cc(S(=O)(=O)NCc3ccc(OC(C)C)cc3)ccc21`, the inhibition was -7.6%.

For `C=CCNC(=O)CC(=O)N/N=C/c1ccc(C(=O)OC)cc1`, the inhibition is active: 33.4%.

As for `Cc1nn2c(=O)cc(COC(=O)COc3ccc(F)cc3)nc2s1`, the inhibition is 14.2%.

`COc1cc2ccccc2cc1C(=O)Nc1cccc(-c2nc3cc(C)ccc3o2)c1C`: the inhibition is -2.84%.

For `Cc1cc(C)cc(NC(=O)Cn2c(=O)n(Cc3ccco3)c(=O)c3oc4ccccc4c32)c1`, the inhibition was found to be 3.92%.

Take `Cc1cccc(NC(=O)C2CCCN(S(=O)(=O)c3ccc(Br)s3)C2)c1` (configuration not stated): the inhibition is 8.26%.

Consider `Cc1nc2cccnc2n1-c1cccc(C(=O)NCCc2ccc(S(N)(=O)=O)cc2)c1`, for which the inhibition is -6.09%.

Consider `Cc1ccc(C2=NC(c3ccccc3)=Nc3ccc(Cl)cc3N2)cc1`, for which the inhibition turned out to be 11.9%.

For the compound `COC(=O)c1cc2oc3ccccc3c2n1Cc1c(C)cc(C)cc1C`, the inhibition was found to be 21.6%.

As for `Cc1cc(C)c2c(=O)cc(C(=O)NCc3ccc(S(N)(=O)=O)cc3)oc2c1`, the inhibition was -3.64%.

On to `Oc1ccc2ccccc2c1CNn1cnnc1`, for which the inhibition was active: 32.6%.

As for `COCCCNC(=O)CSc1nc(-c2ccc(OC)c(OC)c2)[nH]c1-c1ccc(F)cc1`, the inhibition is -24%.

For the compound `CCc1ccc(NC(=O)CCc2nnc3n(C)c(=O)c4sccc4n23)cc1`, the inhibition worked out at 26.7%.

`COc1ccccc1OCCC(=O)OCC(=O)Nc1ccc(Br)cc1F`: the inhibition is active: 41.1%.

Take `COc1ccc(CNC(=O)c2ccc3nc(C(C)C)oc3c2)cc1OC`: the inhibition was determined as 0.0841%.

In the case of `Cc1ccc(NC(=O)CN2C(=O)COc3ccc(S(=O)(=O)Nc4ccccc4)cc32)c(C)c1`, the inhibition was 3.51%.

For `Cc1cc(C)c(NC(=O)CSc2nc3ccncc3[nH]2)c(C)c1`, the inhibition was -2.71%.

As for `Cc1ccc(NC(=O)CSc2nnc(-c3ccc(Br)cc3)o2)c(C)c1`, the inhibition was 14.7%.

Consider `Cc1ccc(OCC(=O)Nc2ccc3nc(SCCOc4ccccc4)sc3c2)cc1`, for which the inhibition was -12.2%.

With `CCOC(=O)Cn1c(=O)oc2cc(S(=O)(=O)N3CCC(C(=O)OCC)CC3)ccc21`, the inhibition turned out to be 2.09%.

(Values after PubChem BioAssay AID485344 (National Center for Advancing Translational Sciences (NCATS), 2010).)
